Source: PubChem BioAssay AID1347073 (National Center for Advancing Translational Sciences (NCATS), 2019)
Hit rate of the full screen: of about 45,000 compounds, about 200 (0.44%) were called active. Roughly 7% stayed inconclusive and do not appear here. Calls follow the shape of the dose curve; as a rule, active = well fitted activation curve with a large enough effect; inconclusive = small, poorly fitted or top-dose-only effect; inactive = no such curve, though single readings can be large or run the other way. Some of the results follow.

Assay: qHTS of TDP-43 Inhibitors: NCGC Sytravon Library Screen; also: 0% is about no effect; nearly all actives have a fitted effect of over 55% in size
Conditions: yeast TDP-43 toxicity rescue, BacTiter-Glo growth, 24 h; series mostly up to 46.1 µM; growth rescue (activation): at the top concentration
In short: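 TDP-43-expressing yeast, pregrown in raffinose, seeded at OD600 0.02 in galactose medium with compound for 24 hr at 30 deg C. Growth read by BacTiter-Glo luminescence, so rescue of toxicity appears as activation.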

| Compound | growth rescue (activation) |
| --- | --- |
| CCOC(=O)CNC(=O)CSc1ncccc1-c1nc2ccccc2[nH]1 | inactive: -1.82% |
| CON(C)S(=O)(=O)c1ccc2c(c1)N(Cc1ccc(C)cc1)C(=O)C1CCCN21 (configuration not stated) | inactive: 0.395% |
| COc1cc(NC(=O)CN2C(=O)NC(C)(c3ccc4ccccc4c3)C2=O)c(C)cc1[N+](=O)[O-] (configuration not stated) | inactive: 9.65% |
| O=C(COC(=O)c1cnccn1)c1ccc(OC(=O)c2ccccc2)cc1 | inactive: 0.723% |
| COc1ccc(NC(=O)c2cc(S(=O)(=O)N3CCOCC3)cs2)cc1 | inactive: 6.57% |
| COc1ccc(NC(=O)Cc2ccsc2)c(OC)c1 | inactive: 18% |
| O=C(COC(=O)c1cc(S(=O)(=O)Nc2ccccc2Cl)ccc1O)Nc1ccc(F)c(F)c1F | inactive: 7.94% |
| COc1cc2ccccc2cc1C(=O)Nc1ccc2oc(-c3ccc(Cl)cc3)nc2c1 | inactive: 9.29% |
| O=C(O)CSCC(=O)Nc1ccc(Cl)cc1C(F)(F)F | inactive: 5.17% |
| COc1ccc(N(CC(=O)NCc2ccccc2OC)S(=O)(=O)c2ccccc2)cc1 | inactive: -14.4% |
| COc1ccc2c(c1OC)C(=O)N1c3ccccc3C(=O)N(c3ccccc3)C21 (configuration not stated) | inactive: 34.5% |
| COCCCNC(=S)N1CCCC(c2nc3cc(C)c(C)cc3[nH]2)C1 (configuration not stated) | inactive: 8.91% |
| COCCCC1CCN(C(=O)C2CCC(=O)N(Cc3ccccc3F)C2)CC1 (configuration not stated) | inactive: 19% |
| Cc1cc(=O)n2c(sc3ccccc32)c1C#N | inactive: -30.6% |
| COc1ccc(F)c(CN(C)CC2CCCN(CCc3ccc(F)cc3)C2)c1 (configuration not stated) | inactive: 7.23% |
| O=c1c(Cl)c(N2CCN(c3ccc(F)cc3)CC2)cnn1-c1nc2ccccc2s1 | inactive: 9.6% |
| O=C(Nc1cccc(S(=O)(=O)Nc2ccccc2F)c1)c1ccco1 | inactive: 22% |
| Cc1cc(C)n(-c2ccc(C(=O)Nc3cc(S(=O)(=O)N(C)C)ccc3Cl)cc2)n1 | inactive: 14.9% |
| COc1cc(CN2C[C@@H](CO)O[C@@H](n3cnc4c(N5CCOCC5)ncnc43)C2)cc(OC)c1OC | inactive: 1.98% |
| O=C1CSC(=S)N1/N=C/c1c(F)cccc1F | inactive: 35.2% |
| Cc1cccc(Nc2nc(NCc3ccco3)nc(N)c2[N+](=O)[O-])c1 | inactive: 12.5% |
| O=C(N/N=C/c1ccncc1)c1ccc(NC(=O)c2cccc(Cl)c2)cc1 | inactive: 11.3% |
| COCCNC(=S)N1CCCC(CO)C1 (configuration not stated) | inactive: 14.1% |
| O=C(COc1ccc(S(=O)(=O)NC2CCCCC2)cc1)NC1CCCC1 | inactive: -9.28% |
| COc1ccc(NC(=O)c2c(F)cccc2Cl)cc1S(=O)(=O)N1CCOCC1 | inactive: 5.14% |
| NS(=O)(=O)c1ccc(NC(=S)Nc2ccc(C(=O)N3CCCCC3)cc2)cc1 | inactive: 18.5% |

| Compound | growth rescue (activation) |
| --- | --- |
| COc1ccc(CC(=O)Nc2ccc(S(=O)(=O)N3CCCC3)cc2)cc1OC | inactive: 23% |
| CSc1ccc(CN2CCN(Cc3ccccc3)C(CCO)C2)cc1 (configuration not stated) | inactive: 12.3% |
| CCOc1ccc(/C=C(/C#N)c2nnc(N3CCOCC3)n2-c2ccccc2)cc1OC | inactive: -4.02% |
| CCN1C(=O)C(CC(=O)Nc2ccc(OC)cc2)N(Cc2ccc3c(c2)OCO3)C1=S (configuration not stated) | inactive: 25.5% |
| C=CCNC(=O)NC(=O)CSc1nc2cc([N+](=O)[O-])ccc2n1-c1cccc(C(F)(F)F)c1 | inactive: 4.11% |
| Cc1c(NS(=O)(=O)c2ccc(Cl)c(C(=O)OC(C)C(=O)N3CCOCC3)c2)c(=O)n(-c2ccccc2)n1C (configuration not stated) | inactive: 3.92% |
| Cc1ccccc1C(=O)NC1CCN(C(=O)Nc2ccc(F)cc2)CC1 | inactive: -6.52% |
| CCCCCn1nc(C(=O)OCC(=O)c2c(N)n(C)c(=O)n(C)c2=O)c2ccccc2c1=O | inactive: 7.31% |
| O=C(CSc1nnnn1-c1ccc(O)cc1)NC1CCCCC1 | inactive: 15.8% |
| O=C(COC(=O)c1cc(Br)ccc1O)c1ccc(F)cc1 | inactive: 14.5% |
| CC1(C(=O)NS(=O)(=O)Cc2ccccc2C(F)(F)F)CCN1C(=O)c1cccc(F)c1 (configuration not stated) | inactive: 4.87% |
| COCCN(C(=O)c1ccccc1F)c1c(N)n(Cc2ccccc2)c(=O)[nH]c1=O | inactive: 7.52% |
| Cc1nc(C)c(C(=O)OCC(=O)N(C)c2ccccc2)s1 | inactive: 8.38% |
| CN(Cc1cc(=O)n2ccsc2n1)Cc1nc2ccccc2c(=O)[nH]1 | inactive: 10.9% |
| CSc1ccc(/C=C/c2cc(=O)c3ccccc3[nH]2)cc1 | inactive: -12.6% |
| O=C(c1ccc(OC2CCN(CCc3ccccc3)CC2)cc1)N1CCCC1 | inactive: -1.83% |
| CN1CCN(CCC(=O)N/N=C/c2cc([N+](=O)[O-])ccc2OC(F)F)CC1 | inactive: -6.74% |
| CC(=O)N1CCN(C(=O)C(Cc2c[nH]c3ccccc23)NC(=O)c2ccccc2Cl)CC1 (configuration not stated) | inactive: -8.8% |
| CC1=NN(C(=O)COc2ccc(C)c(C)c2)C(O)(c2ccc(Cl)cc2)C1 (configuration not stated) | inactive: -18.1% |
| CCOC(=O)C1=C(C)NC(C)=C(C(=O)OCC)C1C(=O)OCC(=O)NCCc1ccccc1 | inactive: 4.25% |
| CCOCCCNC(=S)N1CCN(Cc2ccc3c(c2)OCO3)CC1 | inactive: 7.59% |
| Cn1cccc1/C=N/N1CCN(Cc2ccccc2Cl)CC1 | inactive: -4.36% |
| COCCCN(C(=S)Nc1cc(C)cc(C)c1)C(C)c1ccncc1 (configuration not stated) | inactive: -3.85% |
| COc1cc(CC(=O)OCC(=O)NC2CCCCCC2)cc(OC)c1OC | inactive: 23.4% |
| COc1ccc(C(=O)OCC(=O)N2C(C)CCCC2C)cc1S(=O)(=O)N1CCOCC1 (configuration not stated) | inactive: -10% |
| CCCOc1ccc(C(=O)O/N=C(\CC)c2ccc(C)cc2)cc1 | inactive: 16.7% |
